According to the supplement of paper PMC8728848:
This is one part of the list.

Experiments:
Assay in all cases: glycan array binding signal (z-score within array); higher = stronger binding
Settings in all cases: glycan notation: IUPAC condensed, linker removed
[1] = biological target: Gal(b1-4)GlcNAc(b1-3)Gal(b1-4)GlcNAc(b1-6)[Gal(b1-3)]GalNAc
How it was run: (§1)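 Columns mapping to the same glycan were averaged after glycan names were converted to IUPAC-condensed notation. The data come from 3228 arrays in the Consortium for Functional Glycomics database, limited to those with an available protein sequence. Binding is reported as a within-array Z-score averaged across arrays of one protein sequence and across linkers.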

[2] = biological target: Gal(b1-4)GlcNAc(b1-3)Gal(b1-4)[Fuc(a1-3)]GlcNAc(b1-3)Gal(b1-4)[Fuc(a1-3)]GlcNAc
How it was run: as §1

[3] = biological target: Gal(b1-4)GlcNAc(b1-3)GalNAc
How it was run: as §1

[4] = biological target: Gal(b1-4)GlcNAc(b1-3)[Fuc(a1-3)GlcNAc(b1-6)]Gal(b1-4)Glc
How it was run: as §1

[5] = biological target: Gal(b1-4)GlcNAc(b1-3)[Gal(b1-4)GlcNAc(b1-6)]Gal(b1-4)GlcNAc
How it was run: as §1

[6] = biological target: Gal(b1-4)GlcNAc(b1-3)[GlcNAc(b1-6)]Gal(b1-4)GlcNAc
How it was run: as §1

[7] = biological target: Gal(b1-4)GlcNAc(b1-6)Gal(b1-4)GlcNAc
How it was run: as §1

[8] = biological target: Gal(b1-4)GlcNAc(b1-6)GalNAc
How it was run: as §1

[9] = biological target: Gal(b1-4)GlcNAc(b1-6)[Gal(b1-3)]GalNAc
How it was run: as §1

[10] = biological target: Gal(b1-4)GlcNAc(b1-6)[Gal(b1-4)GlcNAc(b1-3)]GalNAc
How it was run: as §1

Gal(b1-4)GlcNAc6P = biological target: Gal(b1-4)GlcNAc6P
How it was run: as §1

Gal(b1-6)Gal = biological target: Gal(b1-6)Gal
How it was run: as §1

Gal3S(b1-3)GalNAc = biological target: Gal3S(b1-3)GalNAc
How it was run: as §1

Gal3S(b1-3)GlcNAc = biological target: Gal3S(b1-3)GlcNAc
How it was run: as §1

[11] = biological target: Gal3S(b1-3)[Fuc(a1-4)]GlcNAc
How it was run: as §1

Gal3S(b1-4)Glc = biological target: Gal3S(b1-4)Glc
How it was run: as §1

Gal3S(b1-4)Glc6S = biological target: Gal3S(b1-4)Glc6S
How it was run: as §1

Gal3S(b1-4)GlcNAc = biological target: Gal3S(b1-4)GlcNAc
How it was run: as §1

[12] = biological target: Gal3S(b1-4)[Fuc(a1-3)]Glc6S
How it was run: as §1

[13] = biological target: Gal3S(b1-4)[Fuc(a1-3)]GlcNAc
How it was run: as §1

[14] = biological target: Gal3S(b1-4)[Fuc(a1-3)]GlcNAc6S
How it was run: as §1

Gal3S4S(b1-4)GlcNAc = biological target: Gal3S4S(b1-4)GlcNAc
How it was run: as §1

Gal3S6S(b1-4)GlcNAc = biological target: Gal3S6S(b1-4)GlcNAc
How it was run: as §1

Gal3S6S(b1-4)GlcNAc6S = biological target: Gal3S6S(b1-4)GlcNAc6S
How it was run: as §1

Gal4S(b1-4)GlcNAc = biological target: Gal4S(b1-4)GlcNAc
How it was run: as §1

Gal4S6S(b1-4)GlcNAc = biological target: Gal4S6S(b1-4)GlcNAc
How it was run: as §1

Gal6P(b1-4)GlcNAc = biological target: Gal6P(b1-4)GlcNAc
How it was run: as §1

Gal6S(b1-3)GlcNAc = biological target: Gal6S(b1-3)GlcNAc
How it was run: as §1

Gal6S(b1-3)GlcNAc6S = biological target: Gal6S(b1-3)GlcNAc6S
How it was run: as §1

Gal6S(b1-4)Glc = biological target: Gal6S(b1-4)Glc
How it was run: as §1

Gal6S(b1-4)Glc6S = biological target: Gal6S(b1-4)Glc6S
How it was run: as §1

Gal6S(b1-4)GlcNAc = biological target: Gal6S(b1-4)GlcNAc
How it was run: as §1

Gal6S(b1-4)GlcNAc6S = biological target: Gal6S(b1-4)GlcNAc6S
How it was run: as §1

GalNAc(a1-3)Gal = biological target: GalNAc(a1-3)Gal
How it was run: as §1

GalNAc(a1-3)GalNAc = biological target: GalNAc(a1-3)GalNAc
How it was run: as §1

[15] = biological target: GalNAc(a1-3)GalNAc(b1-3)Gal(a1-4)Gal(b1-4)Glc
How it was run: as §1

[16] = biological target: GalNAc(a1-3)GalNAc(b1-3)Gal(a1-4)Gal(b1-4)GlcNAc
How it was run: as §1

GalNAc(b1-3)Gal = biological target: GalNAc(b1-3)Gal
How it was run: as §1

[17] = biological target: GalNAc(b1-3)Gal(a1-4)Gal(b1-4)GlcNAc
How it was run: as §1

[18] = biological target: GalNAc(b1-3)Gal(a1-4)Gal(b1-4)GlcNAc(b1-3)Gal(b1-4)Glc
How it was run: as §1

[19] = biological target: GalNAc(b1-3)Gal(a1-6)Gal(b1-4)Glc
How it was run: as §1

GalNAc(b1-3)GalNAc = biological target: GalNAc(b1-3)GalNAc
How it was run: as §1

GalNAc(b1-3)GlcNAc = biological target: GalNAc(b1-3)GlcNAc
How it was run: as §1

GalNAc(b1-4)Gal(b1-4)Glc = biological target: GalNAc(b1-4)Gal(b1-4)Glc
How it was run: as §1

GalNAc(b1-4)GlcNAc = biological target: GalNAc(b1-4)GlcNAc
How it was run: as §1

B1: PX9961H-bth-557-24-557 (Bacteroides thetaiotaomicron) (protein)
chain: EETRTEVEKKNYMNNAEEAKDVLLGVYRTNTLDAMYGYYLSILFNLGTDISQVEGSGNENFRIIPTNSFPTTQSEVQQTWAALYTGIYRANDFLERISNKIGSYTTTDKKLATLYIAEARALRGMFYFELVRRFGNVVLMTSTQMSNQNPATYVQSAPEKVYEYIEDDLLYACDILPYATDDQYRESNDYRFSKGAALGLLTKVYATWAGYPVKDESKWEAAAKTARILVESGKHGLLKDYEQLWKNTCNGTWDPTESLIEISFYSPTVSGNSDPVGRIGKWNGVKTTAIAGVRGSCAANVKVVHTFVLDWREDVSDIRRDLSIANYQYTDTKKSLWVAGASDTDESAAEKDADPTKAQKNKQNYTPAKWDIQKYVTTNSFINNDKSNVNWYFLRYADVLLLYAEALNEWKHGPDAEAYNAINAVRRRGYGNPSNTSACDLPQGLDETSFREAVRKERSYELSFEGHRRQDLIRWGIYYKTVQATAKELGYWWEGTGSPNYSVATYTEEGKHELFPIPQRDMDLCIQFNQNPKW
With B1 the “glycan array binding signal (z-score)” value [1] was 2.67, the “glycan array binding signal (z-score)” value [2] was -0.312 and the “glycan array binding signal (z-score)” value [3] was -0.585. For the same binder, the “glycan array binding signal (z-score)” value [4] was -0.407, the “glycan array binding signal (z-score)” value [5] was 0.044 and the “glycan array binding signal (z-score)” value [6] was -0.479. The “glycan array binding signal (z-score)” value [7] was 0.053, the “glycan array binding signal (z-score)” value [8] was 0.568 and the “glycan array binding signal (z-score)” value [9] was -0.337. The “glycan array binding signal (z-score)” value [10] was -0.048, the “glycan array binding signal (z-score)” value (Gal(b1-4)GlcNAc6P) was -0.303 and the “glycan array binding signal (z-score)” value (Gal(b1-6)Gal) was -0.383. The “glycan array binding signal (z-score)” value (Gal3S(b1-3)GalNAc) was -0.407, the “glycan array binding signal (z-score)” value (Gal3S(b1-3)GlcNAc) was -0.32 and the “glycan array binding signal (z-score)” value [11] was -0.395. The “glycan array binding signal (z-score)” value (Gal3S(b1-4)Glc) was -0.446, the “glycan array binding signal (z-score)” value (Gal3S(b1-4)Glc6S) was -0.305 and the “glycan array binding signal (z-score)” value (Gal3S(b1-4)GlcNAc) was -0.046. The “glycan array binding signal (z-score)” value [12] was -0.287, the “glycan array binding signal (z-score)” value [13] was 0.328 and the “glycan array binding signal (z-score)” value [14] was -0.135. For the same binder, the “glycan array binding signal (z-score)” value (Gal3S4S(b1-4)GlcNAc) was -0.235, the “glycan array binding signal (z-score)” value (Gal3S6S(b1-4)GlcNAc) was -0.266 and the “glycan array binding signal (z-score)” value (Gal3S6S(b1-4)GlcNAc6S) was -0.33. The “glycan array binding signal (z-score)” value (Gal4S(b1-4)GlcNAc) was -0.296, the “glycan array binding signal (z-score)” value (Gal4S6S(b1-4)GlcNAc) was -0.164 and the “glycan array binding signal (z-score)” value (Gal6P(b1-4)GlcNAc) was -0.334. The “glycan array binding signal (z-score)” value (Gal6S(b1-3)GlcNAc) was 0.284, the “glycan array binding signal (z-score)” value (Gal6S(b1-3)GlcNAc6S) was 0.54 and the “glycan array binding signal (z-score)” value (Gal6S(b1-4)Glc) was -0.037. The “glycan array binding signal (z-score)” value (Gal6S(b1-4)Glc6S) was 0.304, the “glycan array binding signal (z-score)” value (Gal6S(b1-4)GlcNAc) was -0.033 and the “glycan array binding signal (z-score)” value (Gal6S(b1-4)GlcNAc6S) was -0.62. The “glycan array binding signal (z-score)” value (GalNAc(a1-3)Gal) was 1.77, the “glycan array binding signal (z-score)” value (GalNAc(a1-3)GalNAc) was 0.123 and the “glycan array binding signal (z-score)” value [15] was -0.566. For the same binder, the “glycan array binding signal (z-score)” value [16] was -0.082, the “glycan array binding signal (z-score)” value (GalNAc(b1-3)Gal) was 0.096 and the “glycan array binding signal (z-score)” value [17] was -0.163. The “glycan array binding signal (z-score)” value [18] was -0.359, the “glycan array binding signal (z-score)” value [19] was -0.266 and the “glycan array binding signal (z-score)” value (GalNAc(b1-3)GalNAc) was -0.1. The “glycan array binding signal (z-score)” value (GalNAc(b1-3)GlcNAc) was -0.542, the “glycan array binding signal (z-score)” value (GalNAc(b1-4)Gal(b1-4)Glc) was -0.26 and the “glycan array binding signal (z-score)” value (GalNAc(b1-4)GlcNAc) was 0.014.
